# Laboratory results: publication PMC4336329 (PLoS ONE, 2015)
# The campaign covered roughly 310,000 compounds. About 2,200 (0.71%) showed an effect of 50% or more. Effects have a minus sign here. The list shows a part of the results.
# Target: human ether-à-go-go-related gene (hERG) potassium channel (human, UniProt Q12809)
# Experiment: primary screen, population patch clamp on CHO cells stably expressing hERG
# human ether-à-go-go-related gene (hERG) potassium channel, sequence (Q12809 whole entry, looked up): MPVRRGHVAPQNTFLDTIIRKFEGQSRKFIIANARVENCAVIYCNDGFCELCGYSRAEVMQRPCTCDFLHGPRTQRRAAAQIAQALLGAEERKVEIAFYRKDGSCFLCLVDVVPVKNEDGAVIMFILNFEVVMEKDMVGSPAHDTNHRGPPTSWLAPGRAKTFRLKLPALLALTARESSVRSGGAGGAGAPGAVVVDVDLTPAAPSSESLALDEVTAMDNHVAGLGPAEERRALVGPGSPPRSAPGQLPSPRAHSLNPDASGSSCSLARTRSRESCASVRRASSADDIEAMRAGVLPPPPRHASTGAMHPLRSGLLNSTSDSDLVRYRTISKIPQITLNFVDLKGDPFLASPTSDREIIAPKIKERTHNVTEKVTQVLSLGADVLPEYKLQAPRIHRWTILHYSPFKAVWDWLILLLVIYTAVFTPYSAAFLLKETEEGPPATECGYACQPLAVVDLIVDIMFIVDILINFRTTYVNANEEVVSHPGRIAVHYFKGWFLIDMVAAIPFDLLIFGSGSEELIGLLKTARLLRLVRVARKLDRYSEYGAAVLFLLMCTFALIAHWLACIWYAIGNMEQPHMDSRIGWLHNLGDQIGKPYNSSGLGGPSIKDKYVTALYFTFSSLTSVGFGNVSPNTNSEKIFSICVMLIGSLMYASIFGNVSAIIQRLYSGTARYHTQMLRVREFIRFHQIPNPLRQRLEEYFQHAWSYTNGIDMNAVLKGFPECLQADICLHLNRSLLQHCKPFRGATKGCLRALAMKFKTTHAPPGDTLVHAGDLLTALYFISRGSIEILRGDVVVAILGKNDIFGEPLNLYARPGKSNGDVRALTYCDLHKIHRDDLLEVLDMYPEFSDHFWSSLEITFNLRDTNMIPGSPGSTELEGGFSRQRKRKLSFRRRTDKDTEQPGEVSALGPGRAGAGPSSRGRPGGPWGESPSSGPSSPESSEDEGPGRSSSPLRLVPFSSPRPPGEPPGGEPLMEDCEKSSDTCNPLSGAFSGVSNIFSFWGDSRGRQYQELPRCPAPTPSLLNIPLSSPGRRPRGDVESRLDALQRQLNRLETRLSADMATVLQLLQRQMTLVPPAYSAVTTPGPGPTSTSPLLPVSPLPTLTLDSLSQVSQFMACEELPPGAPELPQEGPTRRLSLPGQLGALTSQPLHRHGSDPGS
row,SMILES,"hERG current change (%, negative = inhibition) at 1uM [%]"
1,CC(C)C(NC(=O)c1ccc(C(C)(C)C)cc1)C(=O)N1CCCC1 (centres unmarked),3.99
2,CC(C)c1nc(=S)n(-c2ccccc2)[nH]1,14.2
3,COC(=O)CSc1nnc(NC(=O)/C=C\c2ccc3c(c2)OCO3)s1,19.5
4,O=C(N/N=C/c1ccco1)c1ccn[nH]1,10.7
5,CN(C)C(=O)c1ccc(NC(=O)COc2cccc(Oc3ccccc3)c2)cc1,-1.62
6,O=c1[nH]nc(SCc2cc(Cl)ccc2Cl)c(=O)[nH]1,4.56
7,O=C(COc1ccccc1[N+](=O)[O-])N(C1CCCCC1)C1CCS(=O)(=O)C1 (centres unmarked),17.9
8,CCCCOc1ccc(C(=O)Nn2cnnc2)cc1,6.14
9,Cc1cc(N2CCN(C(=O)c3ccco3)CC2)n2nc(-c3cccc(F)c3)cc2n1,-5.73
10,CCOc1ccc(-n2cc(-c3ccccc3)c3c(=O)[nH]cnc32)cc1,10.7
11,COc1ncnc(OC)c1S(=O)(=O)Nc1ccc(C(F)(F)F)cc1,6.07
12,CCCCOc1ccc(C2CC(=O)NC2=O)cc1 (centres unmarked),8.6
13,Cc1ccc2cc(C3CC(c4ccco4)=NN3S(=O)(=O)c3ccccc3)c(Cl)nc2c1 (centres unmarked),5.49
14,COc1ccc(CN2CCC(n3nccc3NC(=O)c3ccc4c(c3)OCO4)CC2)cc1C,2.86
15,CN1OC(COC(=O)c2ccc(Cl)cc2)CC1c1ccccc1 (centres unmarked),20.1
16,CN(C)c1nc2c(c(=O)n(C)c(=O)n2C)n1CC(=O)c1cccs1,3.11
17,COCCOC(=O)C1=C(C)OC(N)=C(C#N)C1c1ccco1 (centres unmarked),19.5
18,COC(=O)Nc1ccc(S(=O)(=O)NNC(=O)c2c(O)c3ccccc3[nH]c2=O)cc1,17.5
19,COc1ccc(C(=O)C2CCCN(S(=O)(=O)N(C)C)C2)c(C)c1 (centres unmarked),9.99
20,CC(=O)c1ccc(C(=O)N2CCCC(C(=O)c3ccc(Cl)cc3)C2)s1 (centres unmarked),7.04
21,C/C=C/C=C\C(=O)Nc1cccc(C2=NOC3(C2)C[C@H](C(N)=O)N(C(=O)/C=C/C)C3)c1 (some centres unmarked),17.6
22,Cn1c(=O)c2c(nc3n2CC(CO)O3)n(C)c1=O (centres unmarked),9.66

row,SMILES,"hERG current change (%, negative = inhibition) at 1uM [%]"
1,O=C(c1nc2nc(-c3ccccc3)cc(C(F)(F)F)n2n1)N1CCCCC1,7.8
2,Cn1cccc1/C=N\NC(=O)c1cncc(Br)c1,8.6
3,O=C(O)C1CCCC2CN3CCc4c([nH]c5ccccc45)C3C(O)C21 (centres unmarked),12.7
4,CSCCC(NC(=O)c1ccccc1Cl)C(=O)N1CCN(C(C)=O)CC1 (centres unmarked),1.88
5,O=C(CN1C(=O)CCSc2ccc(S(=O)(=O)N3CCOCC3)cc21)Nc1ccccc1Cl,-0.348
6,CCOC(=O)c1nn(-c2ccc(C)cc2)c(=O)cc1OCC(=O)Nc1cccc(OC)c1,11.6
7,CS(=O)Cc1cc(Sc2ccccc2)nc(-c2ccncc2)n1 (centres unmarked),-1.81
8,COc1cc(NC(=O)c2cc(CC(C)C)on2)c(OC)cc1Cl,21.7
9,O=C(CN1CCN(S(=O)(=O)c2ccc(Cl)cc2)CC1)Nc1ccc(F)cc1F,-36.6
10,Fc1ccccc1NC(=S)NCCc1ccccc1,6.57
11,COC(=O)CCC(=O)Nc1ccc(Br)cc1,-6.17
12,Cn1c(Cc2cccc3ccccc23)nnc1SCC(=O)N1CCN(c2ccccc2)CC1,1.77
13,CCN(C(=O)c1cc2c(=O)[nH]c3ccc(C)cc3c2s1)c1ccc(OC)cc1,9.9
14,CCCC(NC(=O)C(C)NC(=O)CO/N=C1\C=C2CCC3C4CCC(C(C)=O)[C@@]4(C)CCC3[C@@]2(C)CC1)C(=O)O (some centres unmarked),7.75
15,CO/C=C\C=C/c1nnn(-c2ccc(Cl)cc2)n1,6.88
16,Cc1c(NC2(C#N)CCCC2)c(=O)n(-c2ccccc2)n1C,7.81
17,COC(=O)c1cc(S(=O)(=O)N2CCCCC2)ccc1N1CCOCC1,-6.09
18,COc1ccc(NC(=O)c2ncn[nH]2)cc1,7.36
19,CCc1cc([N+](=O)[O-])cc(CC)c1N,6.42
20,OCCOCCNc1ncnc2c1cnn2-c1ccc(Cl)cc1,14.4
21,N#Cc1nc(COc2ccccc2F)oc1NCCCn1ccnc1,-11.8
22,Cc1ccc(S(=O)(=O)N(Cc2cccc(C(F)(F)F)c2)C(=O)N2CCN(C)CC2)cc1,12.6
